Laboratory results from a compilation of properties of binary mixtures (doi:10.1021/acs.jced.2c00677).
The densities may have been worked out from excess volumes.

Test: xn = mol fraction of the nth substance listed
Settings: 100 kPa

COCC[N+]1(C)CCCC1.O=S(=O)([N-]S(=O)(=O)C(F)(F)F)C(F)(F)F + CO
mass density [kg/m3]
Settings	x1 = 0.1	x1 = 0.2001	x1 = 0.3003	x1 = 0.3999	x1 = 0.5008	x1 = 0.6	x1 = 0.6991	x1 = 0.8003	x1 = 0.9002
288.15 K	1098.7	1230.5	1304.9	1350.8	1383.6	1407.7	1425.7	1440.4	1452.1
293.15 K	1093.7	1225.6	1299.9	1345.9	–	–	–	1435.6	1447.3
298.15 K	1088.8	1220.6	1295	1341	1373.8	1398	–	1430.8	–
303.15 K	–	1215.6	1290.1	1336.1	1368.9	1393.2	1411.2	1426	1437.8
308.15 K	–	1210.7	1285.1	–	–	1388.4	1406.4	1421.3	1433.1
313.15 K	1073.9	–	1280.2	1326.3	1359.2	1383.6	1401.7	1416.6	1428.3
318.15 K	1068.9	–	1275.3	1321.4	1354.4	1378.8	–	1411.8	1423.7

CO + COCC[N+]1(C)CCCC1.O=S(=O)([N-]S(=O)(=O)C(F)(F)F)C(F)(F)F
x2 = 0
Settings	mass density [kg/m3]
288.15 K	796
293.15 K	791.3
298.15 K	786.6
303.15 K	781.9
308.15 K	777.1
313.15 K	772.3
318.15 K	767.5
